From PMC6570896
These are yes or no findings as the source states them, for the method shown. Binding seen in cells or lysates may run through a third protein. Some results given as binding are weak or reduced against the parent protein; the word gives no strength.

The chains behind the UniProt entries cited, without tags or fusion partners.
UniProt P17070: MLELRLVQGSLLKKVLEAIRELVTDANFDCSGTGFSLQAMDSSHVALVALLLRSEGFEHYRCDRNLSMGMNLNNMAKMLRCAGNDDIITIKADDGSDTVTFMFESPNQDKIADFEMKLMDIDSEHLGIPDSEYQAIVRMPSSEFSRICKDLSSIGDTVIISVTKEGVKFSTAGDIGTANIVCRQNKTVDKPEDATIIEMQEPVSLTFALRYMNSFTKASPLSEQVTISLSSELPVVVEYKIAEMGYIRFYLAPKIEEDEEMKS

What was measured:
Assay in all cases: split reporter; BiFC: fusions to YFP^N (1-155 aa) and YFP^C (156-239 aa) co-expressed transiently in Nicotiana benthamiana leaf epidermal cells; YFP seen by confocal microscopy
[1] = molecular target: T1, OsRFC1 Δ1–642 (rice (Oryza sativa)) (UniProt Q2R2B4)
T1 sequence: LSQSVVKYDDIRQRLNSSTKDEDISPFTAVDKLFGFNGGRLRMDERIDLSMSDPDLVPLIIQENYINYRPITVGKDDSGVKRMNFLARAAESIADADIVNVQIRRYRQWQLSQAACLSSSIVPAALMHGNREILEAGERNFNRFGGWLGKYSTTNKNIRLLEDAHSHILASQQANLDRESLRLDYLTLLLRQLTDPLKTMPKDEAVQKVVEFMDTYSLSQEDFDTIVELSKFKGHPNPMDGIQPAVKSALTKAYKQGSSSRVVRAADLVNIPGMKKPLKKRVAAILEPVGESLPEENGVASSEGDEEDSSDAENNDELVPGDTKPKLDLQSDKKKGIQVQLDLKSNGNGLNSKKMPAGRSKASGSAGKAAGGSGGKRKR

[2] = molecular target: OsRFC2 with a deletion of 100 aa in its C-terminal (rice (Oryza sativa)) (UniProt Q9FXM3)
[3] = molecular target: T2, OsRFC2 Δ1–221 (rice (Oryza sativa)) (UniProt Q9FXM3)
T2 sequence: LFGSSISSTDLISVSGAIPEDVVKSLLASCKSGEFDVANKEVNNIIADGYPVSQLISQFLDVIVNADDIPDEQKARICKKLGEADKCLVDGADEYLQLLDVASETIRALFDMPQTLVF

[4] = molecular target: T3, OsRFC3 Δ37–361 (rice (Oryza sativa)) (UniProt Q6YZ54)
T3 sequence: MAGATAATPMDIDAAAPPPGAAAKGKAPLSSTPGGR

[5] = molecular target: T4, OsRFC4 Δ1–222 (rice (Oryza sativa)) (UniProt Q7XRX1)
T4 sequence: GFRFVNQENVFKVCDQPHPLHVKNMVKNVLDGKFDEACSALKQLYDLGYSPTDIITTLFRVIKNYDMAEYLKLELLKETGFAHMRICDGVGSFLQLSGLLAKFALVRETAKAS

[6] = molecular target: T5, OsRFC4 Δ216–335 (rice (Oryza sativa)) (UniProt Q7XRX1)
T5 sequence: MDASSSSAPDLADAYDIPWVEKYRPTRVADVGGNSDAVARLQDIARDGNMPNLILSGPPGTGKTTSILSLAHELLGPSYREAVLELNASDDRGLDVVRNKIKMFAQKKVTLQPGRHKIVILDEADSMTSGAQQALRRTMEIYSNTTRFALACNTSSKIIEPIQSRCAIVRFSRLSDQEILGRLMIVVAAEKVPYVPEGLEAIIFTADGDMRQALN

[7] = molecular target: T6, OsRFC5 with 237 aa of N-terminal removed (rice (Oryza sativa)) (UniProt Q852K3)
T6 sequence: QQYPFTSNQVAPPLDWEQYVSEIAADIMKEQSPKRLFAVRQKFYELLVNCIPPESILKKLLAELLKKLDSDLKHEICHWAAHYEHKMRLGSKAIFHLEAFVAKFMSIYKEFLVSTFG

[8] = molecular target: T7, OsRFC5 Δ1–300 (rice (Oryza sativa)) (UniProt Q852K3)
T7 sequence: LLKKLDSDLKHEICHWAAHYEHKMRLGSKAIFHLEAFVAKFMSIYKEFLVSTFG

“OsPCNA-YFP^C (from UniProt P17070 1-263)” was tested, and the binding [1] was “binds”, the binding [2] was “binds” and the binding [3] was “binds”. The binding [4] was “no binding”, the binding [5] was “binds” and the binding [6] was “binds”. The binding [7] was “binds” and the binding [8] was “no binding”.
